Experimental data as given in the supplement of paper PMC11417369.
This is one part of the list.

Test system: PfSIP2 AP2 domain 1 (GST-tagged)
Test: gcPBM binding intensity (ln(normalized median fluorescence intensity)); higher = stronger DNA binding
Method in brief: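 DNA-binding domains from P. falciparum, fused to GST and produced in E. coli, were put on an Agilent 4 × 180k double-stranded probe array for 1 h in 1× PBS holding 1% milk, 0.2 mg/ml BSA, 0.5% salmon testes DNA and 0.03% Triton X-100. Probes were primer-extended, 36 bp long and drawn from intergenic genomic regions, with negative controls included. After Alexa488 anti-GST antibody detection and a 488 nm scan, binding intensity was set as the highest Masliner-normalised natural-log median intensity across replicate spots of either probe orientation.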

Sequence | gcPBM binding intensity (ln)
GTATGTGTGTCAAGTCGTACTTACCTTTAAATTTTT [XGTACX_site2507] | 7.18
ACCATGAAAATATTATGTACATATGTATTATATATA [XGTACX_site408] | 7.18
GAGTGAGCTAATAAAAGTACGTAATAAACAAACGCA [XGTACX_site131] | 6.96
ATAGCTGTATTTAATACACACAAAACTTTCATTCCA [CACACA_site5868] | 6.91
TTTTTTTGTTTTGTTTTTTTTTTTTTTTTTTTTTTG [CACACA_negctrl_site570] | 6.76
TTTTTATATTTTTGCACACATTCTTTACTCTTCAAA [CACACA_site2210] | 7.57
TATATATATGGACACACACACATATAAATAAATAAA [CACACA_site4406] | 7.46
TTAAAAAAAAAACACACACACATACACATATATATA [CACACA_site3299] | 7.45
TTTTTTTTTTTTTTTTTTTCTATTTTACTGTTTCGT [CACACA_negctrl_site850] | 7.09
TGTGAAGTACCGAATGTGCACTGTGTGTGTTCTTTT [GTGCAC_site9613] | 10.1
ATAATTAATAAATAATGTACATATATATTATATTTT [XGTACX_site8546] | 6.93
TATAATATGAACAGTACACACAAAATAAATTCGTAT [CACACA_site3586] | 6.89
ATTCAAAATAATAGAATTGTTAAAGTTGTAAATTGA [CACACA_negctrl_site727] | 6.83
CTCAAACAATATTATATAATAAAGTACATATATATT [CACACA_negctrl_site446] | 7.13
AAAAATAAATATACATGTACTTAAAATAATCGAATA [XGTACX_site8432] | 7.01
TATATTTTTATATTTTGTACATATAGTAAATATAAA [XGTACX_site4768] | 7.01
ACGTATCAAAAAATTTGTACATATATATATATATAT [XGTACX_site1024] | 9.36
GAACAGAAAAAGAATAGTACATATATATATATATAT [XGTACX_site3700] | 9.16
AAAAATATATAAAGAAAAAGAATATAATATAAAATA [GTGCAC_negctrl_site208] | 6.91
ATTGTAGAATTTAATAGTACTCACGAATAAAATAAA [XGTACX_site6280] | 7.1
AAAAAAAAAGTATTATGTACATAAAAATAAAAAAAT [XGTACX_site4166] | 7.18
GTTTATGTTAAACCATGTACTTAATATTTTATTCTT [XGTACX_site3761] | 7.03
TATGATTCATAATAGTGTACGTAAAAATTGACTAGA [XGTACX_site5376] | 7.1
TATTAAAATATGTCAGTTCTTAAAAAGTTGATGAGT [GTGCAC_negctrl_site77] | 7.17
